In the RNAGym collection of RNA variant scans (doi:10.7554/elife.90254):
Read counts are not given, so values of variants with three or more changes are uncertain.

B1: LINE1-full (parent)
chain: UACGUAGGUGGUUUUCCCCUGAUAGUGCUAAGGGGGCCUGGAAGUUUGGACUGGGCAGAGCUCAACACAGCGUGGCAAAGUGGCUGUGGCUAGACUGCCUCUCUGGAUUCCUCGUCACUCAGCAGGGCAUCUCUGAGAGAAAUGCC

Variants of: B1
Assay: self-cleavage, relative activity (ratio to wild type); higher = more cleavage; in vitro, sequencing; the parent is a self-cleaving ribozyme

Row | Variant | self-cleavage
1 | UACGUUGGUGGUUUUCCCCUGAUAGUGCUAGGGGGGCCUGGAAGUUUGGACUGGGCAGAGCUCAACACAGCGUGGCAAAGUGGCUGUGGCUAGACUGCCUCUCUGGAUUCCUCGUCACUCAGCAGGGCAUCUCUGAGGGAAAUGCC [A6U A31G A138G] | 0.75
2 | UACGUUGGUGGUUUUCCCCUGAUAGUGCUAAGGGGGCCUGGAAGUUUGGACUGGGCAGAGCUCAACACAGCGUGGCACAGUGGCUGUGGCUAGACUGCCUCUCUGGAUUCCUCGUCACUCAGCAGGGCAUCUCUGAGAGAAACGCC [A6U A78C U143C] | 2.51
3 | UACGUGGGUGGUUUUCCCCUGAUAGUGCUAAGGGGGCCUGGAAGUUUGGACUGGGCAGAGCUCAACACAGCGUGGCAAAGUGGCAGUGGCUAGACUGCCUCUCUGGAUUCCUCGUCACUCAGCAGGGCAUCUAUGAGAGAAAUGCC [A6G U85A C133A] | 0.14
4 | UACGUGGGUGGUUUUCCCCUGAUAGUGCUAAGGGGGCCUGGAAGUUUGGACUGGGCAGAGCUCAACACAGCGUGGCAAAGUGGCUGCGGCUAGACUGCCUCUCUGGAUUCCUCGUCACUCAGCGGGGCAUCUCUGAGAGAAAUGCC [A6G U87C A124G] | 0
5 | UACGUGGGUGGUUUUCCCCUGAUAGUGCUAAGGGGGCCUGGAAGUUUGGACUGGGCAGAGCUCAACACAGCGUGGCAAAGUGGCUGUGGCUAGACUGCCUCUCUGGAUACCUCGUCACUCAGCAGGGCAUCCCUGAGAGAAAUGCC [A6G U109A U132C] | 1.48
6 | UACGUGGGUGGUUUUCCCCUGAUAGUGCUAAGGGGGCCUGGAAGUUUGGACUGGGCAGAGCUCAACACAGCGUGGCAAAGUGGCUGUGGCUAGACUGCCUCUCUGGACUCCUCGUCACUCAGCAGGGCAUCUCUGAGAGGAAUGCC [A6G U108C A140G] | 2.7
7 | UACGUGGGUGGUUUUCCCCUGAUAGUGCUAAGGGGGCCUGGAAGUUUGGACUGGGCAGAGCUCAACACAGCGUGGCAAAGUGGCUGCGGCUAGACUGCCUCUCUGGAUUCCUCGUCACUCAGCAGGGCAUCUCUGAGAGAAGUGCC [A6G U87C A142G] | 0
8 | UACGUGGGUGGUUUUCCCCUGAUAGUGCUAAGGGGGCCUGGAAGUUUGGACUGGGCAGAGCUCAACACAGCGUGGCAAAGUGGCUGUGGCUAGACUGCCUCUCAGGAUUCCUCGUCACUCAGCAGGGCAUCUCUGAGAGAGAUGCC [A6G U104A A141G] | 0.99
9 | UACGUUGGUGGUUUUCCCCUGAUAGUGCUAAGGGGGCCUGGAAGUUUGGACUGGGCAGAGCUCAACACAGCGUGGCAAAGUGGCUGUGGCUAGACUGCCUCUCUGGAUUCCUCGUCACUCAGCAGGGCAUCUCUGAGAGAGUUGCC [A6U A141G A142U] | 1.06
10 | UACGUUGGUGGUUUUCCCCUGAUAGUGCUAAGGGGGCCUGGAAGUUUGGACUGGGCAGGGCUCUACACAGCGUGGCAAAGUGGCUGUGGCUAGACUGCCUCUCUGGAUUCCUCGUCACUCAGCAGGGCAUCUCUGAGAGAAAUGCC [A6U A59G A64U] | 0.04
11 | UACGUGGGUGGUUUUCCCCUGAUAGUGCUAAGGGGGCCUGGAAGUUUGGACUGGGCAGAGCUCAACACAGCGCGGCAAAGUGGCUGUGGCUAGACUGCCUCUCUGGAUUCCUCGUCACUCAGCAGGGCAUCUCUGAGAGGAAUGCC [A6G U73C A140G] | 2.94
12 | UACGUGGGUGGUUUUCCCCUGAUAGUGCUAAGGGGGCCUGGAAGUUUGGACUGGGCAGAGCUCAACACAGCGUGGCAAAGCUGCUGUGGCUAGACUGCCUCUCUGGAUUCCUCGUCACUCAGCAGGGCAUCUCUGAGAGAAAUGCC [A6G U81C G82U] | 0.6
13 | UACGUGGGUGGUUUUCCCCUGAUAGUGCUAAGGGGGCCUGGAAGUUUGGACUGGGCAGAGCUCAACACAGCGUGGCAAAGUGGCUGUGGCUAGACUGCCUCUCUGGAUUCCUCGUCACUCAGCAGGGCACCUCUGGGAGAAAUGCC [A6G U130C A136G] | 1.15
14 | UACGUUGGUGGUUUUCCCCUGAUAGUGCUAAGGGGGCCUGGAAGUUUGGACUGGGCAGAGCUCAACACAGCGUGGCAAGGUGGCUGUGGCUAGACUGCCUCUCUGGAUUCCUCGUCACUCAGCGGGGCAUCUCUGAGAGAAAUGCC [A6U A79G A124G] | 0.48
15 | UACGUUGGUGGUUUUCCCUUGAUAGUGCUAAGGGGGCCUGGAAGUUUGGACUGGGCAGAGCUCAACACUUCGUGGCAAAGUGGCUGUGGCUAGACUGCCUCUCUGGAUUCCUCGUCACUCAGCAGGGCAUCUCUGAGAGAAAUGCC [A6U C19U A69U G70U] | 0.16
16 | UACGUGGGUGGUUUUCCCCUGAUAGUGCUAAGGGGGCCUGGAAGUUUGGACUGGGCAGAGCUCAACACAGCGUGGCAAAGUGGCUGUGGCUAGACUGCCUCUCUGGAUUCCUCGUCACUCAGCAGGGCAACUCUGAGAGGAAUGCC [A6G U130A A140G] | 0.92
17 | UACGUUGGUGGUUUUCCCCUGAUAGUGCUAAGGGGGCCUGGGAGUUUGGACUGGGCAGAGCUCAACACAGCGUGGCAAAGUGGCUGUGGCUAGACUGCCUCUCUGGAUUCCUCGUCACUCAGCAGGACAUCUCUGAGAGAAAUGCC [A6U A42G G127A] | 0.73
18 | UACGUGGGUGGUUUUCCCCUGAUAGUGCUAAGGGGGCCUGGAAGUUUGGACUGGGCAGAGCUCAACACAGCGUGGCAAAGUGGCUGUGGCUAGACCGCCUCUCUGGAUUCCCCGUCUCUCAGCAGGGCAUCUCUGAGAGAAAUGCC [A6G U96C U112C A117U] | 0.13
19 | UACGUGGGUGGUUUUCCCCUGAUAGUGCUAAGGGGGCCUGGAAGUUUGGACUGGGCAGAGCUCAACACAGCGUGGCAAAGAGGCUGUGGCCAGACUGCCUCUCUGGAUUCCUCGUCACUCAGCAGGGCAUCUCUGAGAGAAAUGCC [A6G U81A U91C] | 0.42
20 | UACGUUGGUGGUUUUCCCCUGGUAGUGCUAAGGGGGCCUGGAAGUUUGGACUGGGCAGAGCUCAACACAGCGUGGCAAAGUGGCUGUGGCUAGACUGCCUCUCUGGAUUCCUCGUCACUCAGCAGGGCUCCUCUGAGAGUAAUGCC [A6U A22G A129U U130C A140U] | 1.97

Row | Variant | self-cleavage
21 | UACGUUGGUGGUUUUCCCCUGAUAGUGCUAAGGGGGCCUGGAAGUUUGGACUGGGAAGAGCUCAACACAGCGUGGCAAAGUGGCUGUGGCUAGACUGCCUCUCUGGAUUCCUCGUCACUCAGCAGGGCAUCUCUGAGAGAAACGCC [A6U C56A U143C] | 0.03
22 | UACGUUGGUGGUUUUCCCCUGAUAGUGCUAUGGGGGCCUGGAAGUUUGGACUGGGCAGAGCUCAACACAGCGUGGCAAAGUGGCUGUGGCUAGACUGCCUCUCUGGAUUCCUCGUCACUCAGCAGGGCAUCACUGAGAGAAAUGCC [A6U A31U U132A] | 1.06
23 | UACGUGGGUGGUUUUCCCCUGAUAGUGCUAAGGGGGCCUGGAAGUUUGGACUGGGCAGAGCUCAACACAGCGUGGCAAAGUGGCUGUGGCUAGACUGCCUCUCUGGAUACCUCGUCGCUCAGCAGGGCAUCCCUGAGAGAAAUGCC [A6G U109A A117G U132C] | 0
24 | UACGUUGGUGGUUUUCCCCUGAUAGUGCUAAGGGGGCCUGGAAGUUUGGGCUGGGCAGAGCUCAACACAGCGUGGCAGAGUGGCUGUGGCUAGACUGCCUCUCUGGAUUCCUCGUCACUCAGCAGGGCAUCUCUGAGAGAAAUGCC [A6U A50G A78G] | 0
25 | UACGUGGGUGGUUUUCCCCUGAUAGUGCUAAGGGGGCCUGGAAGUUUGGACUGGGCAGAGCUCAACACAGCGUGGCAAAGUGGCCGUGGCUAGACUGCCCCUCUGGAUUCCUCGUCACUCAGCAGGGCAUCUCUGAGAGAAAUGCC [A6G U85C U100C] | 1.31
26 | UACGUUGGUGGUUUUCCCCUGAUAGUGCUAAGGGGGCCUGGAAGUUUGGACUGGGCAGAGCUCAACACAGCGUGGCAAAGUGGCUGUGGCUAGACUGCCUCUCUGGAUUCCUCGUCACUCAGCAGGGCUUCUCUGAGGGAGAUGCC [A6U A129U A138G A141G] | 1.44
27 | UACGUUGGUGGUUUUCCCCUGAUAGUGCUAUGGGGGCCUGGAAGUUUGGACUGGGCAGAGCUCAACACAGCGUGGCAAAGUGGCUGUGGCUAGACUGCCUCUCUGGAUUCCUCGUCACUCCGCAGGGCAUCUCUGAGAGAAAUGCC [A6U A31U A121C] | 2.4
28 | UACGUUGGUGGUUUUCCCCUGAUAGUGCUAUGGGGGCCUGGAAGUUUGGACUGGGCAGAGCUCAACACAGCGUGGCAAAGUGGCUGUGGCCAGACUGCCUCUCUGGAUUCCUCGUCACCCAGCAGGGCAUCUCUGAGAGAAAUGCC [A6U A31U U91C U119C] | 1.31
29 | UACGUGGGUGGUUUUCCCCUGAUAGUGCUAAGGGGGCCUGGAAGUUUGGACUGGGCAGAGCUCAACACAGCGUGGCAAAGUGGCAGUGGCUAGACUGCCUCUCUGGAUUCCUCGUCACUCAGCAGGGCAUCUCUGUGAGAAAUGCC [A6G U85A A136U] | 0.04
30 | UACGUGGGUGGUUUUCCCCUGAUAGUGCUAAGGGGGCCUGGAAGUUUGGACUGGGCAGAGCUCAACACAGCGUGGCAAAGUGGCCGUGGCUAGACAGCCUCUCUGGAUUCCUCGUCACUCAGCAGGGCAUCUCUGAGAGAAAUGCC [A6G U85C U96A] | 0.33
31 | UACGUUGGUGGUUUUCCCCUGAUAGUGCUAAGGGGGCCUGGAAGUUUGGACUGGGCAGAGCUCAACACAGCGUGGCAAAGUGGCUGUGGCUGGACUGCCUCUCUGGAUUCCUCGUCACUCAGCAGGGCAUCUCUGAGAGAAGUGCC [A6U A92G A142G] | 0.14
32 | UACGUGGGUGGUUUUCCCCUGAUAGUGCUAAGGGGGCCUGGAAGUUUGGACUGGGCAGAGCUCAACACAGCGUGGCAAAGUGGCUGUGGCUAGACUGCCUCUCUGGAUUCCUCGCCACUCAGCAGGGCAUCUCUGAGAGGAAUGCC [A6G U115C A140G] | 1.91
33 | UACGUGGGUGGUUUUCCCCUGAUAGUGCUAAGGGGGCCUGGAAGUUUGGACUGGGCAGAGCUCAACACAGCGUGGCAAAGCGGCUGCGGCUAGACUGCCUCUCUGGAUUCCUCGUCACUCAGCAGGGCAUCUCUGAGAGAAAUGCC [A6G U81C U87C] | 0
34 | UACGUGGGUGGUUUUCCCCUGAUAGUGCUAAGGGGGCCUGGAAGUUUGGACUGGGCAGAGCUCAACACAGCGUGGCAAAGUGGCUGUGGCUAGACUGCCUCUCUGGAAUCUUCGUCACUCAGCAGGGCAUCUCUGAGGGAAAUGCC [A6G U108A C111U A138G] | 1.62
35 | UACGUUGGUGGUUUUCCCCUGAUAGUGCUAAGGGGGCCUGGAAGUUUGGACUGGGCAGAGCUCAACACAGCGUGGCAAGGUGGCUGUGGCUAGACCGCCUCUCUGGAUUCCUCGUCACUCAGCAGGGCAUCUCUGUGAGAAAUGCC [A6U A79G U96C A136U] | 0.26
36 | UACGUUGGUGGUUUUCCCCUGAUAGUGCUAAGGGGGCCUGGAAGUUUGGGCUGGGCAGAGCUCAACACAGCGUGGCAAAGUGGCAGCGGCUAGACUGCCUCUCUGGAUUCCUCGUCACUCAGCAGGGCAUCUCUGAGAGAAAUGCC [A6U A50G U85A U87C] | 0.54
37 | UACGUUGGUGGUUUUCCCCUGAUAGUGCUAAGGGGGCCUGGAGGUUUGGACUGGGCAGAGCUCAACACAGCGUGGCAAAGUGGCCGUGGCUAGACUGCCUCUCUGGAUUCCUCGUCACACAGCAGGGCAUCUCUGAGAGAAAUGCC [A6U A43G U85C U119A] | 0
38 | UACGUUGGUGGUUUUCUUCUGAUAGUGCUAAGGGGGCCUGGAAGUUUGGACUGGGCAGAGCUCAACACAGCGUGGCAAAGUGGCUGUGGCUAGACUGCCUCUCUGGAUUCCUCGUCACUCAGCAGGGCAUCUCUGAGAGAAAUGCC [A6U C17U C18U] | 0.44
39 | UACGUGGGUGGUUUUCCCCUGAUAGUGCUAAGGGGGCCUGGAAGUUUGGACUGGGCAGAGCUCAACACAGCGUGGCAAAGUGGCUGUGGCUAGACUGCCUCUCUGGAUUCCUCGUCACCCAGCAGGGCAUCUCUGAGGGAAAUGCC [A6G U119C A138G] | 0.89
